{"source": "PubChem BioAssay AID624255", "about": "(Broad Institute, 2012)", "note": "Out of some 77,000 compounds screened, about 4,600 (6%) were called active. The inconclusive results got no clear call from the source; some entries with a clear call stand among them for comparison.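 Rule for the calls: active = mean inhibition above about 93%, with at least 55% of replicates each passing it (limit read from the data, passing the limit was not always enough); inconclusive = only one of those two conditions holds; inactive = neither condition holds.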", "data": [{"test": "T. cruzi intracellular proliferation inhibitors, primary screen, cell-based, beta-gal Tulahuen parasites, NIH3T3 host, luminescence (AID 624255)", "conditions": "T. cruzi beta-gal in NIH3T3, GalScreen luminescence, 90 h; at 8.34 µM; stronger effect = higher value", "values": [{"molecule": "CC(C)CC#Cc1ccc([C@H]2[C@@H](CO)N3CCCCN(S(=O)(=O)Cc4ccccc4)C[C@H]23)cc1", "inhibition": "active: 103%"}, {"molecule": "CC(C)CC#Cc1ccc2c(c1)O[C@H](CN(C)C(=O)Cc1ccncc1)[C@@H](C)CN([C@@H](C)CO)S2(=O)=O", "inhibition": "inconclusive: 97.2%"}, {"molecule": "CN(C)C(=O)c1ccc(-c2ccc([C@H]3[C@@H](CO)N4CCCCN(C(=O)C5CCCC5)C[C@@H]34)cc2)cc1", "inhibition": "inconclusive: 95.8%"}, {"molecule": "OC[C@@H]1[C@H](c2ccc(-c3ccc(F)cc3)cc2)[C@@H]2CN(CCC(F)(F)F)CCCCN12", "inhibition": "inconclusive: 95.1%"}, {"molecule": "COc1ccccc1-c1ccc2n(c1=O)C[C@H]1[C@H](CO)[C@@H](C(=O)Nc3nccs3)N(CC3CC3)[C@@H]21", "inhibition": "inconclusive: 96.1%"}, {"molecule": "C[C@H](CO)N1C[C@H](C)[C@H](CN(C)C(=O)c2ccccc2)OCCCC[C@H](C)Oc2ccc(NS(=O)(=O)c3ccc(Cl)cc3)cc2C1=O", "inhibition": "active: 101%"}, {"molecule": "C[C@@H]1CN([C@@H](C)CO)C(=O)c2cc(NS(=O)(=O)c3ccc(F)cc3)ccc2O[C@H]1CN(C)Cc1ccc(-c2ccccc2)cc1", "inhibition": "inconclusive: 109%"}, {"molecule": "C[C@H]1CN([C@@H](C)CO)C(=O)c2cc(NC(=O)Nc3cccc4ccccc34)ccc2O[C@H]1CN(C)C(=O)Nc1ccc(C(F)(F)F)cc1", "inhibition": "inactive: 5.85%"}, {"molecule": "COc1ccc(C#Cc2ccc3c(c2)[C@H]2[C@H](CCN2C(=O)c2ccccc2F)[C@H](CO)N3)cc1", "inhibition": "inconclusive: 97.4%"}, {"molecule": "C[C@@H]1CN([C@@H](C)CO)S(=O)(=O)c2ccc(-c3ccc(C#N)cc3)cc2O[C@H]1CN(C)C(=O)Nc1cc(F)ccc1F", "inhibition": "inactive: 98.9%"}, {"molecule": "Cc1ccccc1S(=O)(=O)N1CCCCN2[C@H](CO)[C@H](c3ccc(-c4cccc(F)c4)cc3)[C@H]2C1", "inhibition": "inactive: 71.2%"}, {"molecule": "COCC#Cc1ccc2c(c1)O[C@H](CN(C)Cc1ccccc1)[C@@H](C)CN([C@@H](C)CO)S2(=O)=O", "inhibition": "inconclusive: 97.8%"}, {"molecule": "Cc1noc(C)c1NC(=O)Nc1ccc2c(c1)C(=O)N([C@H](C)CO)C[C@@H](C)[C@H](CN(C)S(=O)(=O)c1ccccc1)OCCCC[C@H](C)O2", "inhibition": "inactive: -18.2%"}, {"molecule": "C[C@H]1CCCCO[C@H](CN(C)C(=O)Nc2cccc3ccccc23)[C@@H](C)CN([C@@H](C)CO)C(=O)c2cc(NS(=O)(=O)c3ccc(Cl)cc3)ccc2O1", "inhibition": "inconclusive: 95.5%"}, {"molecule": "CO[C@H]1CN(C)C(=O)c2ccc(NC(=O)c3nc4ccccc4s3)cc2OC[C@@H](C)N(Cc2cccnc2)C[C@H]1C", "inhibition": "inconclusive: 98.9%"}]}]}
